Laboratory results reported in the supplement of paper PMC12645437, “Orthogonal IMiD-Degron Pairs Induce Selective Protein Degradation in Cells” (ACS Chemical Biology, 2025).
This is one part of the list.

Biological target: no compound (DMSO)
Experiment: log2 fold change of degron read counts, EGFP-low vs EGFP+ sorted cells; higher = lower degron-EGFP level without compound (poor expression or instability)
Details: compound: DMSO control; 18 h
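Also: jurkat cells carrying a lentiviral library of mutant zinc finger degrons fused to EGFP plus mCherry, mCherry+ cells FACS sorted, degron abundance counted by next-generation sequencing.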

Sequence	log2 fold change of degron read counts
FECNVCGALFTQKGNLLRHIKL	-1.84
FICDQCGAVFTQKGNLLRHIKL	-0.767
FRCEQCGAWFTQKGNLLRHIKL	-0.428
FDCEQCGAGFTQKGNLLRHIKL	-2
FRCPICGAQFTQKGNLLRHIKL	-0.505
FNCEICGHMFTQKGNLLRHIKL	-0.923
FGCNQCGHCFTQKGNLLRHIKL	0.497
FTCDVCGANFTQKGNLLRHIKL	-1.34
FECEICGHEFTQKGNLLRHIKL	-2.03
FACEICGRSFTQKGNLLRHIKL	-2.44
FRCEICGALFTQKGNLLRHIKL	-1.21
LICNQCGFECTQKGNLLRHIKL	-0.563
FCCSVCGHDFTQKGNLLRHIKL	-0.493
FWCDVCGAYFTQKGNLLRHIKL	0.26
FKCPICGASFTQKGNLLRHIKL	-0.768
FDCEVCGAPFTQKGNLLRHIKL	-1.29
FLCDVCGARFTQKGNLLRHIKL	-1.55
FFCDVCGALFTQKGNLLRHIKL	-0.191
FRCNQCGRAFTQKGNLLRHIKL	-0.419
FSCNVCGADFTQKGNLLRHIKL	-2
FICDVCGAPFTQKGNLLRHIKL	-1.65
FICSVCGHAFTQKGNLLRHIKL	-0.527
LSCNQCGFSCTQKGNLLRHIKL	0.576
LKCNQCGFECTQKGNLLRHIKL	-0.715
FHCNQCGACFTQKGNLLRHIKL	0.862

Sequence	log2 fold change of degron read counts
LYCPICGFPCTQKGNLLRHIKL	1.76
FFCEICGRWFTQKGNLLRHIKL	0.666
LRCEICGFTCTQKGNLLRHIKL	-0.0312
LICNQCGFHCTQKGNLLRHIKL	0.438
FGCPQCGAKFTQKGNLLRHIKL	-1.39
FVCNVCGAYFTQKGNLLRHIKL	-0.496
FMCEICGRLFTQKGNLLRHIKL	-0.514
FNCPQCGAKFTQKGNLLRHIKL	-1.36
FDCSVCGHVFTQKGNLLRHIKL	0.378
FICEICGAYFTQKGNLLRHIKL	-0.641
FFCPVCGARFTQKGNLLRHIKL	0.624
FDCDQCGAVFTQKGNLLRHIKL	-1.39
FKCNQCGHLFTQKGNLLRHIKL	-0.844
LSCPICGFKCTQKGNLLRHIKL	0.852
FWCEICGHCFTQKGNLLRHIKL	0.429
FICPQCGAAFTQKGNLLRHIKL	-0.861
FLCEVCGAYFTQKGNLLRHIKL	-1.44
FFCNQCGHVFTQKGNLLRHIKL	0.508
FLCNVCGAEFTQKGNLLRHIKL	0.611
LSCEICGFECTQKGNLLRHIKL	-1.59
FSCNQCGHSFTQKGNLLRHIKL	-0.601
FRCPVCGAAFTQKGNLLRHIKL	-0.0733
FLCSVCGHPFTQKGNLLRHIKL	0.254
FTCNQCGAKFTQKGNLLRHIKL	-0.833
FLCDVCGAFFTQKGNLLRHIKL	-0.766
